# “And” between values parts separate entries of the source, which are not always exact repeats. Identical values can stand only once. Hit rate of the full screen: of about 290,000 compounds, about 2,100 (0.72%) were called active. The inconclusive results got no clear call from the source; some entries with a clear call stand among them for comparison. Calls come from the whole dose curve; as a rule, active = well fitted inhibition curve with a large enough effect; inconclusive = small, poorly fitted or top-dose-only effect, or effect the other way; inactive = flat fitted curve, though single readings scatter. Where the call is inconclusive, the potency comes from a doubtful curve fit.
# Target: Fructose-bisphosphate aldolase (Giardia intestinalis (strain ATCC 50803 / WB clone C6)) (UniProt A8B2U2)
# Assay: qHTS Assay for Inhibitors of Fructose-1,6-bisphosphate Aldolase from Giardia Lamblia; note: nearly all actives have a fitted effect of over 55% in size
# Conditions: purified Giardia FBPA; activity, negative = inhibition: at 59.6 µM (top of the series) unless noted
# How it was run: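 Giardia FBPA (40 nM reagent) was preincubated 10 min at RT with compound (up to 57.5 uM final), then substrate plus GAPDH/TPI/NAD/arsenate coupling system with diaphorase/resazurin was added; resorufin fluorescence (525/598 nm) was read after 20 min.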
# % is set by controls: 0 for no effect and ±100 for the full control effect; potency is the fitted concentration of half-maximal effect; tags give direction and shape of the fitted curve.
# Sequence of UniProt A8B2U2 (A8B2U2 whole entry, looked up): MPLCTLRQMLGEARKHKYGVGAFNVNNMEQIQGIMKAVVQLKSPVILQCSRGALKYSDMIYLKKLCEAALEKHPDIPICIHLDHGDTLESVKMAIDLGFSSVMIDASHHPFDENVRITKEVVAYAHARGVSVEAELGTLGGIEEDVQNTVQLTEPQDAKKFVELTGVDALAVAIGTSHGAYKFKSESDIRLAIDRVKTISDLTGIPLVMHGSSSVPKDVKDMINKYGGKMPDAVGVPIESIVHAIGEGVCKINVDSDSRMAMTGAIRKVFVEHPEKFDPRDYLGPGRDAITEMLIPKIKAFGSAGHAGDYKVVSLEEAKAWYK
SMILES,Potency,"activity, negative = inhibition"
CN1CCCN(Cc2ccccc2C(F)(F)F)CC1,"inconclusive: 15.8 µM [inhibitor, partial curve]",
Cc1ccccc1COc1ccc(-c2nn[nH]n2)cc1,"inconclusive: 3.98 µM [inhibitor, full curve, poor fit]",
O=C(CNCc1ccco1)Nc1cccc(S(=O)(=O)N2CCCCC2)c1,active: 17.7 µM,
Cc1sc2nc(CSCC(=O)Nc3ccc(N4CCOCC4)cc3)[nH]c(=O)c2c1C,"inconclusive: 19.9 µM [inhibitor, single point]",
Cc1ccc(C(=O)/C=C/c2ccc(-c3ccccc3[N+](=O)[O-])o2)cc1,"inconclusive: 1.99 µM [inhibitor, partial curve]",
CC1(C)CC(=O)c2cc(OCC(=O)NCCN3CCCc4ccccc43)ccc2O1,"inconclusive: 31.5 µM [inhibitor, single point]",
Cc1nn(C)c(C)c1NC(=S)Nc1ccc(S(=O)(=O)Nc2ncccn2)cc1,"inconclusive: 15.8 µM [inhibitor, partial curve]",
CN(C)C(=O)COC(=O)c1cccnc1Nc1ccccc1F,,inactive: 1.13%
Cc1ccc(C(=O)NCCOc2cccc(C)c2)cc1,,inactive: 0.205%
Cc1ccccc1C(=O)Nc1ccc(N2CCCC2)cc1,"inconclusive: 19.9 µM [inhibitor, single point]",
Cc1ccsc1C(=O)C1CCCN(Cc2cnn(C)c2)C1 (stereo unspecified),,inactive: -0.483%
CCOc1cc(NS(=O)(=O)c2ccccc2)c(OCC)cc1NC(=O)c1ccco1,"inconclusive: 17.7 µM [inhibitor, partial curve]",
CCOC(=O)N1CCN(CCc2ccccc2)CC1,"inconclusive: 25.1 µM [inhibitor, partial curve]",
COc1cccc(/C=N/NC(=S)Nc2cccc(C(=O)O)c2)c1,"inconclusive: 15.8 µM [inhibitor, partial curve]",
COC(=O)c1sc(N2C(=O)C(O)=C(C(=O)c3ccc(C)o3)C2c2ccc(F)cc2)nc1C (stereo unspecified),"inconclusive: 44.6 µM [activator, single point]",
Clc1ccccc1CN1CCN(CCCc2ccccc2)CC1,active: 19.9 µM,
CCCCC1=CC2=C(c3ccco3)C(=O)C(C)(OC(=O)c3ccc(OC)cc3)C(=O)C2=CN1CCN1CCOCC1 (stereo unspecified),"inconclusive: 3.15 µM [inhibitor, partial curve]",
N[C@@H](Cc1cc(CP(=O)(O)O)cc(-c2ccccc2Cl)c1)C(=O)O,"inconclusive: 17.7 µM [inhibitor, partial curve] and inconclusive: 9.98 µM [inhibitor, partial curve]",
CCS(=O)(=O)N1CCN(c2ccc([N+](=O)[O-])c(NC(C)c3ccccc3)c2)CC1 (stereo unspecified),"inconclusive: 15.8 µM [inhibitor, single point]",
CCCc1ccc(/C=C2\C(=O)c3ccccc3C(O)=C2C(=O)OCC)cc1,"inconclusive: 7.06 µM [inhibitor, partial curve]",
C=CCNC(=S)NN=C1CCCCCCC1,"inconclusive: 8.89 µM [inhibitor, partial curve]",
Oc1ccc(C2C[C@H]3CC[C@@H]2C3)cc1O (stereo partly specified),active: 28.2 µM,
COc1ccc(OCC(=O)O/N=C(\N)Cc2ccc(Cl)cc2Cl)cc1,,inactive: -0.656%
O=C1NC(=O)N(Cc2ccccc2)C1=O,"inconclusive: 22.4 µM [inhibitor, single point]",

SMILES,Potency,"activity, negative = inhibition"
O=C(O)Cc1cccnc1C(=O)O,"inconclusive: 12.6 µM [inhibitor, full curve]",
Cc1ccc(C(=O)Nc2ccc(C(=O)N3CCCCC3)cc2)cc1,,inactive: 3.67%
NNC(=S)NCc1ccccc1,"inconclusive: 15.8 µM [inhibitor, single point]",
CCCCN(C(=O)CNC(=O)c1cccs1)C(C(=O)NC1CCCC1)c1ccncc1 (stereo unspecified),"inconclusive: 22.3 µM [inhibitor, single point]",
Cc1cccc(CN2CCN(C(C)C(=O)NC(C)c3ccccc3)CC2)c1 (stereo unspecified),"inconclusive: 12.6 µM [inhibitor, partial curve]",
CCOC(=O)C1=C(C)NC(C)=C(C(=O)OCC)C1c1cc(N)ccc1OC(F)F,"inconclusive: 14.1 µM [inhibitor, partial curve]",
Cc1sc2nc(CN3CCC(C)CC3)nc(Cl)c2c1C,,inactive: 0.0565%
O=C(c1ccccc1)c1ccc(OCC(O)CNCc2cccc(Cl)c2)cc1 (stereo unspecified),"inconclusive: 15.8 µM [inhibitor, partial curve]",
O=C1C(=O)c2ccc(-c3ccccc3)cc2-c2ccccc21,active: 0.281 µM,
COc1ccc(C(=O)Nc2ccccc2C(=O)Nc2ccccc2C(=O)O)cc1,,inactive: 2.39%
C=CC[n+]1ccc(/C=C2\C=Cc3cc(C)ccc3N2CC)c2ccccc21,"inconclusive: 3.54 µM [inhibitor, full curve]",
Cc1c(N2C(=O)/C(=C/C3CC=CCC3)SC2=S)c(=O)n(-c2ccccc2)n1C (stereo unspecified),"inconclusive: 31.5 µM [inhibitor, single point]",
COc1ccc(CNC2CCSc3ccccc32)cc1OC (stereo unspecified),active: 28.2 µM,
CC(C)OCCCNC(=O)c1c(N)n(CC2CCCO2)c2nc3ccccc3nc12 (stereo unspecified),"inconclusive: 1.41 µM [inhibitor, full curve]",
COc1ccc(NC(=O)COC(=O)c2ccc(S(=O)(=O)N(C)c3ccccc3OC)cc2)c(OC)c1,,inactive: 1.33%
Cc1ccccc1-c1cc2nc(C)c(C)c(=O)n2[nH]1,"inconclusive: 28.2 µM [inhibitor, partial curve]",
CC(C)(C)OC(=O)CNC(=O)c1nc[nH]c1C(=O)N1CCc2ccccc2C1,"inconclusive: 28.2 µM [inhibitor, single point]",
CN[C@@H]1C[C@@H](c2ccc(Cl)c(Cl)c2)c2ccccc21,inactive,
COc1ccc(NC(=O)CN2CCN(CC(=O)Nc3cc(OC)cc(OC)c3)CC2)cc1,"inconclusive: 31.5 µM [inhibitor, single point]",
CCC(C)NC(=O)c1c(N)n(Cc2ccc3c(c2)OCO3)c2nc3ccccc3nc12 (stereo unspecified),"inconclusive: 6.29 µM [inhibitor, partial curve]",
O=C(O)c1ccc(S(=O)(=O)c2ccc3c(c2)C(=O)N(NC(=O)c2ccc(O)cc2)C3=O)cc1,"inconclusive: 12.6 µM [activator, partial curve]",
COc1ccc(C2(CNC(=O)c3ccc(OC)c([N+](=O)[O-])c3)CCCCC2)cc1OC,"inconclusive: 15.8 µM [inhibitor, single point]",
C=CCn1c(C(C)NC(=O)c2ccccc2)n[nH]c1=S (stereo unspecified),"inconclusive: 4.46 µM [inhibitor, full curve]",
CCCc1cc(C(=O)NCc2ccc(OC)cc2)no1,,inactive: -0.955%

SMILES,Potency,"activity, negative = inhibition"
CC1CCc2cc(F)ccc2N1C(=O)CSc1nnc2c(n1)[nH]c1ccccc12 (stereo unspecified),,inactive: -16.2%
CCc1ccc(C2=CSC3=NCCN23)cc1,"inconclusive: 35.5 µM [inhibitor, partial curve]",
O=S(=O)(c1ccccc1)n1ccc(-c2cnc(-c3ccccc3)s2)n1,,inactive: -7.85%
N#CC1(N2CCN(C(=O)c3ccccc3)CC2)CCCCC1,"inconclusive: 2.82 µM [inhibitor, partial curve]",
CCCN(CCO)Cc1ccc(Cl)c(Cl)c1,"inconclusive: 9.98 µM [inhibitor, partial curve]",
CCN(CC)CCN(C)Cc1ccc(Br)cc1,"inconclusive: 7.06 µM [inhibitor, single point]",
Cc1ccccc1NNC(N)=S,"inconclusive: 15.8 µM [inhibitor, single point]",
COc1cccc(CNc2ccc(C)c(Cl)c2)c1,,inactive: -1.14%
COc1ccc2nc(-c3ccccc3)[nH]c2c1,"inconclusive: 22.3 µM [inhibitor, partial curve]",
CCc1cc2ccccc2nc1SCC(=O)Nc1cc(OC)c(OC)cc1C(=O)O,"inconclusive: 35.4 µM [activator, single point]",
O=C(NC(=S)Nc1ccccn1)c1cccc([N+](=O)[O-])c1,active: 15.8 µM,
CCN(CC)C(=O)CSc1nc(-c2ccccc2)ccc1C#N,,inactive: 7.35%
Cc1cc(=O)[nH]c2c1c(=O)[nH]n2C1CC(C)N(C)CC1C (stereo unspecified),"inconclusive: 17.7 µM [inhibitor, single point]",
COc1cc2c(N3CCOCC3)cc(O)c(CC(=O)Nc3ccccc3)c2cc1OC,"inconclusive: 25.1 µM [inhibitor, single point]",
CCCCC1=CC2=C(c3ccco3)C(=O)C(C)(OC(=O)c3ccc(OC)cc3)C(=O)C2=CN1C(CO)CO (stereo unspecified),"inconclusive: 7.06 µM [inhibitor, single point]",
COc1ccc(-c2noc(CN(C)Cc3ccc(C)o3)n2)cc1,,inactive: -3.57%
Oc1ccccc1CN(CCc1ccccc1)Cc1ccccc1,"inconclusive: 15.8 µM [inhibitor, partial curve]",
C=CCN1C(=O)NC(=O)C(Cc2ccc(OC)c(OC)c2)C1=O (stereo unspecified),"inconclusive: 15.8 µM [inhibitor, single point]",
COc1ccc(N2C(=O)CC(Sc3ncn[nH]3)C2=O)c(OC)c1 (stereo unspecified),"inconclusive: 6.29 µM [inhibitor, partial curve]",
CCOC(=O)C1CCN(C(=O)Nc2ccc(OC(F)(F)F)cc2)CC1,,inactive: -0.118%
O=C(NCCCO)Nc1ccc2nc(-c3ccco3)c(-c3ccco3)nc2c1,"inconclusive: 1.58 µM [inhibitor, full curve]",
CN1CCc2nc3sc(C(=O)NC4CC4)c(N)c3cc2C1,"inconclusive: 31.5 µM [inhibitor, single point]",
Cc1ccc(S(=O)(=O)N(C)C)cc1NC(=O)c1cncc(Br)c1,"inconclusive: 17.7 µM [inhibitor, partial curve]",
